Source: PubChem BioAssay AID1845208 (Molecular Pharmacology Branch, DTP, NCI, 2023)
For part of its entries the source gives two or more results. Only these are listed. An entry can have further records. Values given together repeat one measurement (runs, samples, wells, individuals or studies). Additions like (4×) count equal records among those shown.

Tested on: NCI-H196 SCLC complex tumor spheroid viability
Assay: Anticancer human tumor NCI-H196 cell line growth inhibition;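 also: spheroids exposed to compounds for 7 days before readout; 100% = DMSO vehicle control wells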
Settings: compound alone 100 µM; stronger effect = lower value
Description: Multicellular complex tumor spheroid response to DNA repair inhibitors in combination with DNA-damaging drugs
This study explores the anticancer activities of DNA-damaging drugs and inhibitors of DNA damage repair, both as single agents and in combinations. Complex tumor spheroids comprised of malignant cells, endothelial cells and mesenchymal stem cells served as an in vitro model for human solid tumors. This model system incorporates physiologically relevant features and patient-derived or established malignant cell lines with clinically relevant genetic alterations from many tumor types. Twenty-six patient-derived or established malignant cell lines were evaluated representing sarcoma, melanoma, small cell lung cancer (SCLC), non-small cell lung cancer (NSCLC), as well as bladder, ovarian and pancreatic cancers. The concentration ranges selected for each drug and investigational agent were based upon clinically achievable concentrations if the clinical Cmax of the agent was known.
Compounds. […] If the clinical Cmax for an agent had not been determined, the highest concentration tested was 10 microM. […]

Cn1nnc2c(C(N)=O)ncn2c1=O
viability, T/C: 104, 109, 103, 114, 105 (2×), 99.5, 83.5, 102% (2×)
